Measurements from patent US20240101670A1 (Eli Lilly, published 2024).

How the values were obtained:
[1] = target: cynomolgus monkey LAIR1 on cells (cynomolgus monkey); assay: cell-based or functional assay
[2] = target: T1, human LAIR1 on cells (human, UniProt Q6GTX8 22-287); assay: cell-based or functional assay
T1 sequence: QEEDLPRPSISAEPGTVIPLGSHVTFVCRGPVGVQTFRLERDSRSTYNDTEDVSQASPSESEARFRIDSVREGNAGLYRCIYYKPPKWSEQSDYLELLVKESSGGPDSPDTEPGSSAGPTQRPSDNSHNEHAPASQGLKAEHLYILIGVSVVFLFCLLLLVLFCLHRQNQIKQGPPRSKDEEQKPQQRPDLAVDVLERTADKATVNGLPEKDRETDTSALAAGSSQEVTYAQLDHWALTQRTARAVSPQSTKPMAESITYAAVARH

[3] = target: T2, cynomolgus monkey LAIR1 on cells (cynomolgus monkey); assay: flow cytometry, Jurkat-cyLAIR1+ cells
T2 construct: whole, on cells; Jurkat LAIR1ko cells expressing cyno LAIR1; also called cyno LAIR1; cyLAIR1
Protocol: (§1) The anti-human LAIR1 antibodies were evaluated for binding to human and cynomolgus monkey (cyno) LAIR1 engineered cell lines and primary human T cells that endogenously express LAIR1. Jurkat-hLAIR1+ (Jurkat cell overexpressing human LAIR1), Jurkat-LAIR1ko (Jurkat cell knocking out human LAIR1), Jurkat-cyLAIR1+ cells (Jurkat LAIR1ko cell expressing cyno LAIR1), and primary human T cells were incubated with the anti-human LAIR1 test antibodies. […] Cells were then washed and incubated with anti-human IgG Alexa Fluor 647 secondary antibody for 20 minutes at 4° C. Cells were then washed and antibody binding was evaluated by flow cytometry. For primary human T cells, cells were also stained for CD4 and CD8 to delineate CD4+ and CD8+ T cells.

[4] = target: T1, human LAIR1 on cells; assay: flow cytometry, primary human CD4+ T cells (endogenous LAIR1)
Protocol: as §1

[5] = target: T1, human LAIR1 on cells; assay: cell-based or functional assay; remark: listed apart in the source
[6] = target: T1, human LAIR1 on cells; assay: flow cytometry, Jurkat-hLAIR1+ cells
Protocol: as §1

[7] = target: T3, soluble, extracellular domain (ECD) of LAIR1 (human, UniProt Q6GTX8 22-163); assay: SPR, Biacore 8K, 37 °C, antibody captured on anti-human kappa, LAIR1-ECD as analyte
T3 construct: Produced recombinantly; also called LAIR1-ECD; LAIR1 ECD protein
T3 chain: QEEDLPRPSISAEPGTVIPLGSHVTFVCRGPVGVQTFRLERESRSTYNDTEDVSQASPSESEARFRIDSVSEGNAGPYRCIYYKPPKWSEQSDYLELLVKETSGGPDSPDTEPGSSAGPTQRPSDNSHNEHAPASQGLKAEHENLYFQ
Protocol: Antibody binding affinity and kinetics were determined by surface plasmon resonance (SPR) using a Biacore 8K (Cytivia Life Sciences). Measurements were performed at 37° C. using HBS-EP+ as the running buffer (150 mM sodium chloride, 3 mM EDTA, 0.05% (w/v) surfactant P-20, and 10 mM HEPES, pH7.4). Binding experiments used the soluble, extracellular domain (ECD) of LAIR1 (SEQ ID NO: 17), produced recombinantly, which was diluted to working concentration in HBS-EP+ containing 0.1 mg/mL Bovine serum albumin. Goat anti-Human kappa (Southern Biotech) was immobilized on all eight flow cells of a CM4 sensor chip using an amine coupling kit.
Binding was evaluated using multiple analytical cycles. Each cycle is performed at a flow rate of 30 μL/minute and consists of the following steps: injection of antibody over a different flow cell (25 μL of antibody at 0.5 μg/mL at 10 μL/minute), injection of 75 μL (30 μL/min, for 150 seconds) of each LAIR1-ECD dilution (starting at 1 μM and using three-fold serial dilutions to 1.4 nM for each cycle, with one injection for each concentration) followed by a 1200 second delay for dissociation, and chip surface regeneration using three 15 μL injections (30 μL/min, for 30 seconds) of 10 mM glycine hydrochloride, pH1.7. Association and dissociation rates for each cycle were determined by fitting of the biosensor data to a simple 1:1 association model using the provided instrument analysis software to extract the kₒₙ and koff rate constants; the equilibrium binding constant KD was calculated using the relationship Kd=koff/kₒₙ.

[8] = target: T1, human LAIR1 on cells; assay: flow cytometry, primary human CD8+ T cells (endogenous LAIR1)
Protocol: as §1

[9] = target: T1, human LAIR1 on cells; assay: cell-based or functional assay; remark: listed apart in the source

Inhibition of NFAT Activity (% inhibition vs. no antibody), Jurkat-cyLAIR1+ [1]: 67.1% | IC50 of antibody activity, Jurkat-hLAIR1+ NFAT [2]: 0.0119 µg/mL | Inhibition of NFAT Activity (% inhibition vs. no antibody), Jurkat-hLAIR1+ [2]: 60.3% | EC50 [3]: 0.0834 µg/mL | EC50 [4]: 0.0401 µg/mL | Inhibition of IFN-γ response at 1 µg/mL (% inhibition vs. no antibody), primary human T cells [5]: 31.2% | EC50 [6]: 0.0534 µg/mL | Kd [7]: 0.126 nM | koff [7]: 0.000168 s⁻¹ | kon [7]: 1.34e+06 M⁻¹ s⁻¹ | EC50 [8]: 0.0532 µg/mL | Inhibition of IL-6 response at 8 ng/mL (% inhibition vs. no antibody), primary human B cells [9]: 69.6%
B1: mAb3 (antibody, human IgG4 S228P, kappa)
heavy: QVQLQESGPGLVKPSETLSLTCTAFGGSISGHYWSWIRQPAGKGLEWIGRIYPSGGTNKNPSLKSRVTMSVDTSKNQFSLKLSSVTAADTAVYYCVRDYWDDYYGMDVWGQGTTVTVSSASTKGPSVFPLAPCSRSTSESTAALGCLVKDYFPEPVTVSWNSGALTSGVHTFPAVLQSSGLYSLSSVVTVPSSSLGTKTYTCNVDHKPSNTKVDKRV[human IgG4 Fc with S228P (EU numbers) omitted here]
light: [about 100 residues omitted here][about 120 residues omitted here]
notes: also called anti-human LAIR1 antibody mAb3
